In patent US8008094B2, “Methods for analyzing interactions between proteins and sugar chains” (National Institute of Advanced Industrial Science and …, priority 2003, dated 2011):

Test system: binding of Cy3-ASF to lectin spots
Experiment: Inhibition of lectin-sugar chain interaction on lectin array by competitively inhibiting sugar (Example 1)
Conditions: Cy3-ASF probe, increasing inhibiting sugar concentration

## OC[C@H]1O[C@@H](O[C@H]2[C@H](O)[C@@H](O)C(O)O[C@@H]2CO)[C@H](O)[C@@H](O)[C@H]1O (stereo partly shown) [lactose]
  fluorescence intensity of the spots in the presence of inhibiting sugar: decrease as the concentration of inhibiting sugar increased
